# About 170 (0.05%) of roughly 340,000 compounds were called active. About 26% were inconclusive and are not listed. The call rests on the fitted dose curve; in most records, active means well fitted inhibition curve with a large enough effect in the signal ratio, with a control signal flat (not every such curve was filed as active); inconclusive means small, poorly fitted or top-dose-only effect, or effect the other way, or a change in a side signal; inactive means flat fitted curve, though single readings scatter; the % refers to the signal ratio. The entries are a selection whose mix differs from that of the whole data set.
# Experiment: qHTS Assay to Find Inhibitors of Chronic Active B-Cell Receptor Signaling;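 on activity change, negative = inhibition: plate controls were basal doxycycline-induced cells for no effect and cells given 10 µM MG132 for full effect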
# Details: ABC-DLBCL IkBa-CBG/CBR reporter, luminescence ratio (green luciferase fused to IkBa over red control in TMD8 lymphoma cells), 4 h; series mostly up to 46.1 µM; activity change, negative = inhibition: at the top concentration
# Summary of the method: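 Doxycycline induced both beetle luciferases in TMD8 lymphoma cells; IKK-driven degradation limits the IkappaBalpha-fused green signal, while red luminescence normalises for cell number and nonspecific effects. Compounds tested up to 46 uM, 4 hrs.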
# Potency means the concentration at half of the fitted maximal effect.
SMILES,"activity change, negative = inhibition",Potency
CC(C)(C)[C@@H]1COC(=O)[C@H](Cc2ccc(F)cc2)CC/C=C\C[C@H](CC(=O)N(CCO)Cc2ccccc2)C(=O)N1,inactive: 2.05%,
Clc1cccc(-c2ccc3ncnc(NCc4cccs4)c3c2)c1,inactive: -7.48%,
CCOc1ccc(N(CC(=O)Nc2ccccc2OC)S(=O)(=O)c2ccccc2)cc1,,active: 15.8 µM
O=C(C[C@H]1C/C=C\CC[C@H](Cc2ccc(F)cc2)C(=O)OC[C@H]2CCCN2C1=O)N[C@@H](CO)Cc1ccccc1,inactive: 0.795%,
O=C(O)[C@@H]1CCCN1S(=O)(=O)c1cccc2cccnc12,inactive: -0.815%,
O=C(COCc1ccccc1)N[C@@H]1c2ccccc2CC[C@@H]1OCc1ccccc1,inactive: 3.28%,
C=CCOC(=O)C1=C[C@@H](c2cn(C(C)=O)c3ccccc23)C[C@@H](OCCCCO)O1,inactive: -11.6%,
COC(=O)C1=C(C)N(Cc2ccccc2)C(=NCCc2ccccn2)N[C@H]1c1cccc(C(F)(F)F)c1,inactive: 0.248%,
CC(=O)C[C@H](O)CC(=O)[C@@H]1OC(=O)CCCCCc2ccccc21,inactive: 5.04%,
CCOC(=O)N1CCN(S(=O)(=O)N2CCCC(C(=O)NCc3ccc(OC)cc3OC)C2)CC1 (stereo unspecified),inactive: -0.554%,
COc1ccc(/C=C(\NC(=O)c2ccccc2)C(=O)N2CCC(C)CC2)cc1,inactive: 4.15%,
C=CC[C@@H](CC(=O)NCCO)C(=O)N[C@H](COC(=O)[C@H](CC=C)CC(=O)OC(C)(C)C)Cc1c[nH]c2ccccc12,inactive: -5.83%,
CC(C)(C)OC(=O)C[C@H]1C/C=C\C[C@@H](CC(=O)NCCO)C(=O)N[C@H](C(C)(C)C)COC1=O,inactive: 0.885%,
COc1ccc(Nc2cc3n(c(=O)n2)CCc2cc(OC)c(OC)cc2-3)c(C)c1,,active: 17.8 µM
CCN1C(=NCc2cc(OC)c(OC)c(OC)c2)N[C@@H](c2cccc(C(F)(F)F)c2)C(C(=O)OC)=C1C,inactive: -6.31%,
COc1ccc(C2Nc3ccccc3C(=O)N2Cc2ccco2)cc1CN1C(=O)c2ccccc2C1=O (stereo unspecified),inactive: -1.5%,
COc1ccc(-c2ccc(CCC(=O)O)n2-c2ccccc2O)cc1,,active: 15.8 µM
Oc1ccc(C[C@@H]2CNCCN2CCCCC2CCCCC2)cc1,inactive: 0.585%,

SMILES,"activity change, negative = inhibition",Potency
CCOC(=O)C1=C(C)NC(C)=C(C(=O)OC)C1c1cccc([N+](=O)[O-])c1 (stereo unspecified),inactive: -16.5%,
C[C@H]1NC(=O)[C@@]2(C)[C@@H](c3ccccc3)[C@H]3COc4ccccc4[C@@H]3N2C1=O,inactive: -0.129%,
COC(C[C@H]1O[C@@H]1[C@@H](O)[C@H](C)OCc1ccccc1)OC,inactive: -1.35%,
O=C(Oc1c(CN2CCOCC2)cc(Cl)c2cccnc12)c1ccccc1F,,active: 3.55 µM
Cc1ccc(C(O)(C(=O)NNc2ccc3ccccc3n2)c2ccc(C)cc2)cc1,inactive: -4.41%,
C=CCC[C@H](Cc1ccc(F)cc1)C(=O)OC[C@H](Cc1c[nH]c2ccccc12)NC(=O)[C@@H](CC=C)CC(=O)N[C@@H](CO)Cc1ccccc1,inactive: -0.163%,
COc1cc2c(cc1OC)C(SC)=NC(C)(C)C2,,active: 16.4 µM
CC(C)(C)OC(=O)C[C@H]1C/C=C\C[C@@H](CC(=O)N(CCO)Cc2ccccc2)C(=O)N2CCC[C@@H]2COC1=O,inactive: 2.27%,
O=C(C[C@@H]1C/C=C\C[C@H](NC(=O)OCC2c3ccccc3-c3ccccc32)C(=O)OC[C@@H]2CCCN2C1=O)N[C@@H](CO)Cc1ccccc1,inactive: -2.36%,
O=C(N/N=C/C(Cl)=C/c1ccccc1)c1cnccn1,inactive: -20.4%,
CC12CCCC[C@@H]1CCC1C2CCC2(C)C1CC[C@@]2(O)CNCCO (stereo partly specified),inactive: 0.217%,
Cc1cccc(-c2ccc3ncnc(NCc4cccnc4)c3c2)c1,inactive: -17.4%,
CC(C)(C)OC(=O)N[C@@H](C(=O)OC(C)(C)C)c1ccc(Br)cc1,inactive: 14.6%,
CC(C)CCNC(=O)c1ccc2c(c1)N(C)C(=O)c1ccccc1S2,inactive: -5.41%,
COc1ccc(C(C)n2c(C)c3c(C)nnc(C)c3c2C)cc1 (stereo unspecified),inactive: 4.63%,
COc1ccc(CCNC(=O)c2ccc(CS(=O)(=O)Cc3cccc(C)c3)o2)cc1OC,inactive: -0.0419%,
C[C@H]1COC(=O)[C@@H](CC(=O)OC(C)(C)C)C/C=C\C[C@H](CC(=O)NCCO)C(=O)N1,inactive: 4.08%,
CC(=O)c1ccc(NS(=O)(=O)c2ccc(-c3cnc(C4CC4)o3)cc2)cc1,inactive: 20.5%,

# Source: PubChem BioAssay AID493014 (National Center for Advancing Translational Sciences (NCATS), 2011)
